Laboratory results taken from article PMC4336329 (PLoS ONE, 2015).
Screen size: about 310,000 compounds; about 2,200 (0.71%) showed an effect of 50% or more. The effect is printed as a negative number. The list shows a part of the results.

target: human ether-à-go-go-related gene (hERG) potassium channel (human, UniProt Q12809); experiment: primary screen, population patch clamp on CHO cells stably expressing hERG
Sequence (Q12809 whole entry, looked up): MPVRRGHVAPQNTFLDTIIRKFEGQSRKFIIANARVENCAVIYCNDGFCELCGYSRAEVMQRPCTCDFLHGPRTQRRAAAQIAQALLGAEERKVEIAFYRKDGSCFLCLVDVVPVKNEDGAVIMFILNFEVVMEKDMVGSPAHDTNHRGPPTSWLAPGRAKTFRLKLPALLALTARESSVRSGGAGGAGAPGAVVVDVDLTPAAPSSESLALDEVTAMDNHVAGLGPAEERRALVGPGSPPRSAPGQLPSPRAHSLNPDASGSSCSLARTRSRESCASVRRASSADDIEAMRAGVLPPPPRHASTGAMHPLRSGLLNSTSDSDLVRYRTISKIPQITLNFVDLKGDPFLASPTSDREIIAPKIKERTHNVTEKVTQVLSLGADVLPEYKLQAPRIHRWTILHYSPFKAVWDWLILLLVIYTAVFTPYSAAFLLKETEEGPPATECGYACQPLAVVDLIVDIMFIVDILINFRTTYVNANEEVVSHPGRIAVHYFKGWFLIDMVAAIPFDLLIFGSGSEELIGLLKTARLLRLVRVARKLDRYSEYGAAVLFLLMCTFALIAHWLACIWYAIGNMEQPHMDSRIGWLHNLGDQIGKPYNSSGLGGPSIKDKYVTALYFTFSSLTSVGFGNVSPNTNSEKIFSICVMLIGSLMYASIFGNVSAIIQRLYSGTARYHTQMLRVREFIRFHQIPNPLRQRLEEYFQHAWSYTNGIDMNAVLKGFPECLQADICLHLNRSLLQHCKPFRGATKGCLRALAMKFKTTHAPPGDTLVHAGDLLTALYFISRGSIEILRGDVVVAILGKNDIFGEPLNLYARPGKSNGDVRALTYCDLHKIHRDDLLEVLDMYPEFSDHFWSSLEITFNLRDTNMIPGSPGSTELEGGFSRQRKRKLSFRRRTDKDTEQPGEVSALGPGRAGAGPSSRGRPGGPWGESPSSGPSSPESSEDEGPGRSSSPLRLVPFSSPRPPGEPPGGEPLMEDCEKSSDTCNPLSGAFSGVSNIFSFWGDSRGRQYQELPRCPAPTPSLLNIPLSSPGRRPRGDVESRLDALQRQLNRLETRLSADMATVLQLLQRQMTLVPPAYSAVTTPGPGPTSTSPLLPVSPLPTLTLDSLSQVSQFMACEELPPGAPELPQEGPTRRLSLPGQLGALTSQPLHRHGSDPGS

| SMILES | hERG current change (%, negative = inhibition) at 1uM |
| --- | --- |
| Cc1ccc2oc(-c3cccc(N)c3)nc2c1 | 16.4% |
| CC(=O)[C@@H]1[C@@H](C(=O)c2ccc(C)cc2)[C@]2(C(=O)Nc3ccccc32)[C@H]2C=Cc3cc(F)ccc3N12 | 13.9% |
| Cc1ccc(C(=O)Nc2sc3c(c2C#N)CCCCC3)cc1C | 0.327% |
| Cc1nonc1NC(=O)CSc1nc2ccc(Cl)cc2[nH]1 | 9.93% |
| COc1cccc(NC(=O)C(OC(=O)c2cnc(C)cn2)c2ccccc2)c1 (centres unmarked) | 18.5% |
| O=C(Nc1ccc(S(=O)(=O)Nc2cnc3ccccc3n2)cc1)c1ccc(F)cc1 | 7.17% |
| Cc1ccc(CSc2ncnc3onc(C)c23)cc1 | 12.4% |
| O=C(O)[C@@H](O)c1ccccc1 | 10.6% |
| Cc1ccc(C)c(-n2c(Cc3cc(=O)[nH]c(=O)[nH]3)nnc2SCC(=O)NCC2CCCO2)c1 (centres unmarked) | 8.54% |
| CCCNC(=O)Nc1ccccc1C(=O)Nc1ccc(OC)cc1 | 5.37% |
| O=C(CSCc1ccccc1)N/N=C/c1ccc(OCC(=O)N2CCCCC2)cc1 | 8.86% |
| Cc1onc(-c2ccc3c(c2)OCO3)c1-c1ccc2[nH]ccc2c1 | 1.52% |
| Cn1c(Cn2c(=O)sc3ccccc32)nnc1SCC(=O)NCC1CCCO1 (centres unmarked) | 11.3% |
| CC(C)CN(C(=O)COC(=O)c1ccc(-c2ccccc2)cc1)C1CCS(=O)(=O)C1 (centres unmarked) | 4.42% |
| O=C(NC1CCN(Cc2nnnn2CCc2ccccc2)CC1)c1ccccc1F | 8.6% |
| Cc1ccc(OCC(=O)NCCO)c(Br)c1 | 11.3% |
| Cc1ccc(OCC(=O)NC2CCS(=O)(=O)C2)c([N+](=O)[O-])n1 (centres unmarked) | 16.7% |
| CN(C)c1ccc(C2/C(=C(/O)c3ccccc3)C(=O)C(=O)N2CCCC(=O)O)cc1 (centres unmarked) | 4.49% |
| CCC1(C)Cc2c(sc3nn[nH]c(=O)c23)CO1 (centres unmarked) | 2.53% |
| CS(=O)(=O)N(CC(N)=O)Cc1ccc(Cl)cc1 | 1.43% |
| COc1ccc(C(=O)Nc2cnccn2)cc1[N+](=O)[O-] | 12.2% |
| O=S(=O)(NC1CCCCC1)c1ccc(Cl)nc1 | 7.56% |
| COc1ccc(C2=NN(C(=O)CSc3ncccn3)C(c3ccc(OC)cc3)C2)cc1 (centres unmarked) | 2.55% |

| SMILES | hERG current change (%, negative = inhibition) at 1uM |
| --- | --- |
| CS(=O)(=O)c1ccc2nc(NC(=O)C3CCCO3)sc2c1 (centres unmarked) | 4.57% |
| CN(C(=S)Nc1ccccc1F)C1(c2ccccc2Cl)CCCCC1=O (centres unmarked) | 1.76% |
| COc1cccc(/C=C/C(=O)NCCc2ccc(OC)c(OC)c2)c1 | 5.32% |
| O=C(OCc1c(-c2ccccc2)ncc2ccccc12)c1cccc(Br)c1 | 4.74% |
| CCC(C)n1c(O)c(C(c2ccccn2)c2c(O)n(C(C)CC)c(=S)[nH]c2=O)c(=O)[nH]c1=S (centres unmarked) | 9.43% |
| O=C(NCc1ccccc1)c1ccccc1-c1nc2ccccc2[nH]1 | 14.8% |
| c1ccn2cc(CSC3=NCCS3)nc2c1 | 18.9% |
| CC(C)(O)[C@H]1Cc2cc3ccc(=O)oc3cc2O1 | 14.7% |
| C#CCOc1ccc2ccccc2c1/C=C(/C#N)c1ccc(C(=O)O)cc1 | 13.1% |
| CCOc1ccc(OCCCC(=O)N(CC)CC(=O)Nc2c(F)cccc2F)cc1 | 7.12% |
| CC(C)C(=O)Nc1nnc(-c2ccccc2)o1 | 4.79% |
| CN(CC(=O)Nc1cccc(F)c1)C(=O)c1ccc(-c2ccc(Cl)cc2)o1 | 14.4% |
| COc1ccc(N2CCN(C(=O)CNS(=O)(=O)c3ccc(C)cc3)CC2)cc1 | 10.6% |
| CC(=O)N1CCN(Cc2nc(C(c3ccccc3)c3ccccc3)no2)CC1 | 17.8% |
| COc1ccc(-c2nnn(CC(=O)NCCc3c[nH]c4ccccc34)n2)cc1OC | 5.94% |
| CNC(=O)c1ccsc1NC(=O)CCS(=O)(=O)c1ccc(F)cc1 | -2.79% |
| COc1ccc(C(=O)c2ccccc2Cl)cc1 | -0.249% |
| Cc1cc(C)cc(NC(=O)C2CCCC2)c1 | 18.7% |
| O=C1NCCN/C1=C\C(=O)c1ccc(F)cc1 | 10.6% |
| O=C(NC(=S)Nc1ccc(N2CCCC2)cc1)c1ccc(F)cc1 | 13.2% |
| CCc1noc(C)c1C(=O)N(CCCOC)c1c(N)n(Cc2ccccc2)c(=O)[nH]c1=O | 10.3% |
| Nc1nnc(-c2ccc(Cl)c([N+](=O)[O-])c2)s1 | 11.3% |
| COc1ccc(-c2cc(=O)n(-c3nc4ccccc4[nH]3)[nH]2)cc1 | -23.9% |

| SMILES | hERG current change (%, negative = inhibition) at 1uM |
| --- | --- |
| Cc1cccc(-n2ncc3c2CCCC3NC(=O)CCCN2CCCCC2=O)c1C (centres unmarked) | 13.4% |
| CC(=O)N1CCN(C(=O)c2ccc(NS(=O)(=O)c3cc(C)ccc3C)cc2)CC1 | 13.8% |
| CC(C)[C@H](N)c1nnc(SC/C=C/c2ccccc2)o1.Cl | 2.27% |
| O=[N+]([O-])c1ccc2[nH]ncc2c1 | 7.88% |
| COc1nnc(-c2ccc(N3CCCCC3)c(NC(C)=O)c2)c2ccccc12 | 16.5% |
| CCN1CCN(c2cc(C)c3cc(NC(=S)NCCCOC)ccc3n2)CC1 | 12.1% |
| COc1cc2c(cc1OC)C(c1cc3cc4c(cc3[nH]c1=O)OCO4)N(C(=O)C(C)C)CC2 (centres unmarked) | -0.936% |
| CCCNC(=O)CSc1nnc(C)s1 | 0.416% |
| O=C1/C(=C/c2ccc3c(c2)OCO3)Oc2cc(OCC(=O)N3CC(O)C[C@H]3C(=O)O)ccc21 (some centres unmarked) | -0.626% |
| O=C(Nc1ccc2snnc2c1)N1CCSCC1 | 12.4% |
| O=C(c1ccc(Cl)s1)N1CCN(c2ncccn2)CC1 | 7.33% |
| COc1ccc(CCN2C(=O)C3C4C=CC(C5CC45)C3C2=O)cc1OC (centres unmarked) | 3.53% |
| CC1C(C(=O)Nc2ccccc2)CCCC1(C)C(=O)O (centres unmarked) | 6.34% |
| CCCc1cn(S(=O)(=O)c2ccc(OC)cc2OC)nc1N | 6.34% |
| Fc1ccccc1CSc1nncn1NC/C=C/c1ccccc1 | 14.1% |
| O=C(NCC1(N2CCCCC2)CCCCC1)c1cccc(NS(=O)(=O)c2ccccc2)c1 | -34% |
| COc1ccc(CCNC(=O)C2CCCN(c3nc4ccccc4s3)C2)cc1OC (centres unmarked) | 10.4% |
| O=C(NC1CCCC1)C(c1ccccn1)N(C(=O)c1csnn1)c1ccccc1 (centres unmarked) | 15.2% |
| CC(=O)/C(=N/Nc1ccccc1)Sc1nnc(CCc2ccccc2)n1-c1ccccc1 | -0.859% |
| CC1(C)CC(N2CCCC2)=CC(=[N+]2CCCC2)C1.[I-] | 2.56% |
| Cc1nn(C)cc1S(=O)(=O)NC1CCCC1 | 1.96% |
| COc1ccc(-c2noc(N3CCC(C(=O)NCCCN4CCC(C)CC4)CC3)n2)cc1 | -0.816% |
| Cc1ccc(S(=O)(=O)N2CCOCC2)cc1NC(=O)COc1cccc(-n2cnnn2)c1 | 1.93% |

| SMILES | hERG current change (%, negative = inhibition) at 1uM |
| --- | --- |
| COc1ccc(NC(=O)c2ccc(S(=O)(=O)N(C)c3ccccc3)cc2)cn1 | 1.02% |
| Cc1ccccc1C(=O)c1cccn1CC(=O)N1CCCCCC1 | 7.99% |
| CC12CCC(C(=Nc3ccc(N=C4C(=O)C5(C)CCC4C5(C)C)cc3)C1=O)C2(C)C | 8.42% |
| CC(C)c1nc2sc(C(=O)O)c(N)c2c2c1CCCC2 | 8.77% |
| CCOc1ccc(C2NC(=O)NC(C)=C2[N+](=O)[O-])cc1OC (centres unmarked) | 10.1% |
| O=C(Nc1cccc2ncccc12)c1cccnc1 | 15.6% |
| CCN1CCN(C(=O)NC(c2ccc(C)c(F)c2)C(Cl)Cl)CC1 (centres unmarked) | 4.1% |
| CN(C)c1ccc(/C=C/c2ccc3ccccc3n2)cc1 | 17.2% |
| COc1ccc(C2=NO[C@@H]3[C@@H]4C[C@@H]([C@H]5C(=O)N(c6ccc7c(c6)OCO7)C(=O)[C@@H]45)[C@H]23)cc1OC | 7.53% |
| O=C(Nc1ccccc1)C1C2CCCCC21 (centres unmarked) | 8.19% |
| COC(=O)[C@@]12CCCCN1[C@H](c1ccc(SC3CCCCC3)c(OC)c1)[C@@H]1C(=O)N(C)C(=O)[C@@H]12.O=C(O)C(F)(F)F | 10.3% |
| CCOC(=O)N1CCc2c(sc3c2c(=O)n(Cc2ccccc2)c(=O)n3CC(=O)NCCOC)C1 | 15.1% |
| NC(=O)C1CCN(C(=O)CCSCc2ccc(Cl)c(Cl)c2)CC1 | 6.63% |
| CC1CCN(CCCNC(=O)C2CCC(CNS(=O)(=O)c3cccc4nsnc34)CC2)CC1 (centres unmarked) | 12.9% |
| CC(C)COc1ccc(S(=O)(=O)n2cc(F)c(=O)[nH]c2=O)cc1 | 8.79% |
| COc1cccc(-n2c(Cn3nc(C(F)F)cc3C(F)F)n[nH]c2=S)c1 | 9.61% |
| CCOC(=O)C1CCN(C(=S)Nc2ccc(C)cc2)CC1 | 11% |
| CC(=O)Nc1ccc(Nc2ncnc3ccccc23)cc1 | 6.75% |
| COc1ccccc1N(C)S(=O)(=O)c1ccc(Cl)c(C(=O)N2CCC(C(N)=O)CC2)c1 | 7.6% |
| O=C(OCc1nnc(-c2ccccc2)o1)c1cc(F)c(F)cc1Cl | 6.81% |
